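Five concentrations, 48 hours, 96-well plates. GI50 is the concentration that inhibits growth by half.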 The source made the active and inactive calls. Rule as the data show it: active = GI50 up to about 1.1 µM and inactive = higher.

In the test the test system is NCI-H322M. The experiment in a line: NCI-60 cell line screen, 48 h.
Take `O=NN(CCCl)C(=O)NC1CCC(=O)NC1=O` (stereo unspecified): the GI50 was inactive: 528 µM.
Then `CC(=O)Nc1ccc(S(=O)(=O)N=S(C)C)cc1`, with inactive: > 100 µM; and `COc1cc(C(=O)O)c([N+](=O)[O-])c(OC)c1OC`, with inactive: 49.3 µM.
For the compound `c1cc(C2N3CCCN2CC3)ccn1` (stereo unspecified), the GI50 was inactive: > 100 µM.
Consider `CCCC(=O)OCC1(CO)C/C(=C/CC(C(C)C)C(C)C)C(=O)O1` (stereo unspecified), for which the GI50 is inactive: > 100 µM.
In the case of `CCOC(=O)c1c(SCCN2CCCC2)n(-c2ccccc2)c(=S)n(-c2ccccc2)c1=O`, the GI50 is inactive: 18.2 µM.
Then `O=C1C(c2c(O)[nH]c3ccc([N+](=O)[O-])cc23)=Nc2ccccc21`, with inactive: > 100 µM.
As to `Cc1sc2nc(-c3ccc(Cl)c([N+](=O)[O-])c3)c(/C=N/NC(=N)N)n2c1C`, the GI50 is inactive: 1.54 µM.
Take `COC(=O)/C(C#N)=C1\CCC(C(=O)OC)N1C` (stereo unspecified): the GI50 is inactive: > 100 µM.
As for `COC(=O)C(Cc1ccccc1)NC(=O)C(CCC(=O)OCc1ccccc1)NC(=O)OC(C)(C)C` (stereo unspecified), the GI50 was inactive: > 100 µM.
Turning to `C[C@H]1COC(c2ccccn2)=N1`, the GI50 was inactive: > 100 µM.
With `C=CC(=O)Nc1ccc(NC(=O)C=C)c2c1C(=O)c1ccccc1C2=O`, the GI50 was inactive: 36.7 µM.
`O=C(CCC(=O)Nc1ccc(Cl)cc1)CC(=O)c1ccc(F)cc1`: the GI50 was inactive: > 100 µM.
As for `CCOc1cc(C2CC(c3ccc(NS(=O)(=O)c4cc([N+](=O)[O-])ccc4C)cc3)=NN2c2ccc([N+](=O)[O-])cc2[N+](=O)[O-])ccc1O` (stereo unspecified), the GI50 is inactive: 6.22 µM.
`CC(=O)N1c2ccccc2[C@H]2CCc3c([nH]c4ccccc34)[C@H]21`: the GI50 is inactive: 10.9 µM.
Regarding `Cc1cnoc1NS(=O)(=O)c1ccc(Nc2nnc(/C=C/c3c(O)ccc4ccccc34)c(=O)n2N)cc1`, the GI50 was inactive: 83.9 µM.
Then `C=CC(C)(O)/C=C/C=C(\C)C(CC1OC1(C)C)OC(=O)/C(C)=C\C` (stereo unspecified), with inactive: > 100 µM; and `N=C(N)NS(=O)(=O)c1ccc(NC(=O)c2cccc3c(NNc4ccc(S(=O)(=O)N=C(N)N)cc4)c4ccccc4nc23)cc1`, with inactive: 62.4 µM.
Then `OC1(c2ccccc2)OC(C#Cc2ccccc2)(c2ccccc2)c2ccccc21` (stereo unspecified), with inactive: 1.91 µM; and `COC(=O)Nc1nc2cc(NC(=O)c3cccs3)ccc2[nH]1`, with inactive: 74.6 µM.
For `O=C1C=C(c2ccccc2)OC1C1Sc2ccccc2NC1=O` (stereo unspecified), the GI50 is inactive: 24.3 µM.
For the compound `COc1ccc(Sc2ccccc2[N+](=O)[O-])cc1`, the GI50 is inactive: 42.1 µM.
`CN(/N=C\c1ccc2ccccc2c1)C1=NCCCCN1`: the GI50 is inactive: 19.3 µM.
With `COc1cc(/C=C2\CC3C4CC=C5C[C@@H](O)CC[C@]5(C)C4CC[C@]3(C)\C2=N\O)cc(OC)c1OC` (stereo partly specified), the GI50 is inactive: 17.3 µM.
With `CC(C)c1cccc(C(=O)NCCN(C)C)c1[N+](=O)[O-]`, the GI50 was inactive: > 100 µM.
In the case of `COc1ccc(SS(=O)(=O)c2ccc(OC)cc2)cc1`, the GI50 was inactive: 34.4 µM.
Regarding `Nc1nc2c3nc(Nc4ccccc4)sc3nc(=O)n2c2sc(Nc3ccccc3)nc12`, the GI50 was inactive: > 100 µM.
For the compound `O=[N+]([O-])c1ccc(CSc2nn(Cc3ccc([N+](=O)[O-])cc3)cc3ncnc2-3)cc1`, the GI50 was inactive: 43.8 µM.
Regarding `CCc1cc(Cc2cc(CC)c(NC(=O)C(=O)CC(=O)c3sc(-c4cccnc4)nc3C)c(CC)c2)cc(CC)c1NC(=O)C(=O)CC(=O)c1sc(-c2cccnc2)nc1C`, the GI50 is inactive: > 100 µM.
Regarding `O=C(c1ccc(F)cc1)c1cccc(C(=O)c2ccc(F)cc2)n1`, the GI50 is inactive: > 100 µM.
`CC1=C(C(=O)O)N2C(=O)[C@@H](NC(=O)C(c3ccccc3)N3CSC(=S)N(C(C)C)C3)C2SC1` (stereo partly specified): the GI50 was inactive: > 100 µM.
In the case of `Cc1ccc(C2SCc3nc4ccccc4n32)cc1` (stereo unspecified), the GI50 was inactive: 5.19 µM.
Then `O=c1c2ncn(COCCCl)c2n(-c2ccccc2)c(=S)n1-c1ccccc1`, with inactive: > 100 µM.
Then `CCCCc1c2c(nc3c1CC/C(=C\c1ccccc1)C3=O)CCCC2`, with inactive: 15.8 µM; and `COC(=O)C(CC12CC3CC(CC(C3)C1)C2)NC(=O)C(N)CC(=O)O` (stereo unspecified), with inactive: > 100 µM.
`CC1=C(C)C1[N+](=O)[O-]`: the GI50 was inactive: > 100 µM.
As to `CC(=O)/C(=C(/Br)I)c1ccccc1`, the GI50 was inactive: 15.6 µM.
Then `CC(C)(C)OC(=O)NC(Cc1ccccc1)C(=O)OCN1C(=O)C2C3C=CC(C2C1=O)C1C2C(=O)N(COC(=O)C(Cc4ccccc4)NC(=O)OC(C)(C)C)C(=O)C2C31` (stereo unspecified), with inactive: 76.6 µM; and `CCOC(CN(C)C(=O)Nc1ccc(Cl)c(Cl)c1)OCC`, with inactive: > 10 µM; and `O=S1(=O)c2ccccc2C(=NO)c2ccccc21`, with inactive: > 100 µM.
`CC(=O)OC12C=CC(=O)N1c1ccccc1C(=O)O2` (stereo unspecified): the GI50 was inactive: > 100 µM.
Then `Cc1cc(C)n(C(=O)CSc2nc3ccc(I)cc3c(=O)n2Cc2ccccc2)n1`, with inactive: 38.1 µM.
Turning to `CN(C)CCNC(=O)c1cccc2c1nc(-c1ccc(F)cc1)c1ccccc12`, the GI50 is inactive: 4.2 µM.
Then `Oc1ccc2c(c1)-c1c(c3cc(O)ccc3n1CCN1CCOCC1)CC2`, with inactive: 37.8 µM; and `CC(C)(C)C1=CC(=C2C=Cc3cc(O)ccc3O2)C=C(C(C)(C)C)C1=O`, with inactive: 1.86 µM; and `Cc1cc(-c2c(Br)cc(C(=O)O)n2C)on1`, with inactive: > 100 µM.
As to `CSCCC(NCc1c(O)ccc2ccc(=O)oc12)C(=O)O` (stereo unspecified), the GI50 was inactive: > 100 µM.
Then `COc1ccc(-c2nc(N(C)C)c3ccccc3n2)cc1`, with inactive: 6.41 µM; and `CC(C)CCCCCCCCCCCCC(=O)NCC(=O)NC1C(C)OC(Nc2ncnc3c2ncn3C)C(O)C1O` (stereo unspecified), with inactive: 8.18 µM.
As for `NCC#CCNCCCN1CC1`, the GI50 is inactive: > 100 µM.
For the compound `CC1(C)OCC(C2OC(=O)C(OCc3ccccc3)=C2OCc2ccccc2)O1` (stereo unspecified), the GI50 was inactive: > 100 µM.
Regarding `CSc1ccc(/C=C/C(=O)c2nc3ccccc3[nH]2)cc1`, the GI50 is inactive: 19.4 µM.
Then `CCOC(=O)c1nnsc1NC(=O)NCCCCCCn1c(=O)n(CCCCCCNC(=O)Nc2snnc2C(=O)OCC)c(=O)n(CCCCCCNC(=O)Nc2snnc2C(=O)OCC)c1=O`, with inactive: 43.4 µM; and `CC(=O)CCCCCCCCCCCC[C@@H]1CC[C@H](C)[C@H](O)N1`, with inactive: > 100 µM.
For `Cc1cc(C)c2c(=O)n(CC(O)CN3CCN(CCOCCO)CC3)sc2n1` (stereo unspecified), the GI50 was inactive: 37.7 µM.
Then `CN(C)c1ccc(/C=C(\NC(=O)c2ccccc2)c2nn(C)c(=O)o2)cc1`, with inactive: > 100 µM.
Then `CN(C)CC(NC(NCS)C(=O)NCCNc1ccc(NCCNC(=O)C(NCS)NC(CN(C)C)OCCl)c2c1C(=O)c1c(O)ccc(O)c1C2=O)OCCl` (stereo unspecified), with active: 0.52 µM.
On to `CCOP1(=O)OCC2OC(n3cnc4c(N)ncnc43)C(O)C2O1.c1ccccc1` (stereo unspecified), for which the GI50 is inactive: > 100 µM.
With `N#CC1=C(c2ccccc2)NN(Cc2ccccc2)C(c2ccc(Cl)cc2)CC1=O` (stereo unspecified), the GI50 was inactive: 26.5 µM.
With `OC1(C23CC4CC(CC(C4)C2)C3)CSCC1(O)C12CC3CC(CC(C3)C1)C2` (stereo unspecified), the GI50 is inactive: > 100 µM.
With `C=C(CBr)CCCOCc1ccccc1`, the GI50 is inactive: > 100 µM.
As to `C/C1=C/C2OC(=O)C3(C)C2C(CC2(C)OC1=CC2=O)OC3(O)C(C)C` (stereo unspecified), the GI50 was inactive: 39.8 µM.
As to `Cc1c(N/C=C(\C#N)C(=O)c2ccc(Cl)cc2)c(=O)n(-c2ccccc2)n1C`, the GI50 was inactive: > 100 µM.
Take `O=c1n(CCCN2CCOCC2)nc2n1-c1ccc3ccccc3c1SC2`: the GI50 is inactive: > 10 µM.
In the case of `Cc1ccc(/C=N/NS(=O)(=O)c2ccccc2)cc1`, the GI50 is inactive: > 100 µM.
Take `Cc1cc(Br)cc(C)c1NC(=O)C(=O)C(C(=O)c1ccncc1)C1OC(=O)c2ccccc21` (stereo unspecified): the GI50 was inactive: > 100 µM.
Then `NC(Cc1ccccc1)C(=O)OCN1C(=O)C2C3C=CC(C2C1=O)C1C2C(=O)N(COC(=O)C(N)Cc4ccccc4)C(=O)C2C31` (stereo unspecified), with inactive: > 100 µM.
As to `C[N+](C)(C)CC(=O)N/N=C(\CCC(=O)NCCc1ccccc1)CC(=O)c1ccccc1`, the GI50 is inactive: > 100 µM.
Then `O=C(Nn1cnn2c(=O)c3ccccc3nc2c1=O)c1ccccc1`, with inactive: > 100 µM; and `C/C(=N\NC(N)=S)c1ccccn1.OB(O)c1ccccc1`, with inactive: 10 µM; and `COC(=O)C1C=CCON2CCc3c(n(S(=O)(=O)c4ccccc4)c4ccccc34)C12` (stereo unspecified), with inactive: > 100 µM.
Turning to `Cc1ccccc1NC(=N)Nc1ccccc1C`, the GI50 is inactive: > 100 µM.
`COC(=O)[C@H](COC(=O)/C=C/c1ccc(OC(C)=O)c(OC(C)=O)c1)NC(=O)/C=C/c1ccc(OC(C)=O)c(OC(C)=O)c1`: the GI50 is inactive: 18.5 µM.
Consider `Oc1cc(-c2ccc(F)cc2)nc2ncccc12`, for which the GI50 is inactive: 71.6 µM.
For the compound `COc1cc2c(cc1C)NC(=O)/C2=C/c1c(Cl)[nH]c2cc(C)c(OC)cc12`, the GI50 was inactive: 7.85 µM.
For `COC(=O)c1cc(C(=CCC[C@H]2CC[C@@]3(C)C(CCC4C3CC[C@@]3(C)C4CC[C@@H]3C(C)CCCC(C)C)C2)c2cc(Cl)c(O)c(C(=O)OC)c2)cc(Cl)c1O` (stereo partly specified), the GI50 is inactive: > 10 µM.
In the case of `COc1cc2c(cc1OCCCNC(=O)c1cc3ccccc3[nH]1)N=C[C@@H]1CCCN1C2=O`, the GI50 was inactive: 1.2 µM.
In the case of `COc1ccc2cc(CNCCOCCOCCNCc3ccc4cc(OC)ccc4c3)ccc2c1`, the GI50 is active: 0.697 µM.
As to `Oc1ccc(/C=C/c2cc(O)cc3c2C(c2cc(O)cc(O)c2)C(c2ccc(O)c(O)c2)O3)cc1` (stereo unspecified), the GI50 is inactive: 43.5 µM.
For `CS(=O)(=O)c1ccc2nc(-c3ccc(O)cc3)sc2c1`, the GI50 is inactive: 16.6 µM.
Regarding `O=c1c2cc(Cl)ccc2n2nnc3ccc(NCCNCCO)c1c32`, the GI50 was active: 1.04 µM.

These data come from ChEMBL document CHEMBL1201862, “PubChem BioAssay data set” (2004).
